Measurements as given in the supplement of paper PMC11369174, “Proteome-scale characterisation of motif-based interactome rewiring by disease mutations” (Molecular Systems Biology, 2024).
This is one part of the list. Single values of this set are uncertain.

The binders below were run against USP7_MATH-TRAF__Q93009_53_206 (assay: mutation enrichment score (mutant vs wild-type peptide binding to bait); baits are purified protein domains named by gene / domain / UniProt id / residues; peptides come from disordered regions of human proteins; higher = mutation enhances binding relative to wild type). Conditions: number of wild-type / mutant comparisons summed (bounds the score): 10; paper call: no_effect; wild-type window: ….
Sequence of USP7_MATH-TRAF__Q93009_53_206 (chain, as listed by the source): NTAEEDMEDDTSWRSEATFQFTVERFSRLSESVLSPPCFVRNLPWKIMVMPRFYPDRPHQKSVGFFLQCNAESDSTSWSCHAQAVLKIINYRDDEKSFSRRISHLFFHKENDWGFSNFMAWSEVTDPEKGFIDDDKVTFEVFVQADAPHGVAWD

Binder | mutation enrichment score
SCSADLKDILSEASTMQLLQRQQQEAVSEGSSSGRAREASG [Q196R Q196R] | -3
NLDLDSIIAEVKAQYEEIANSSRTEAESWYQTKYEELQQTA [R352S R352S] | 2
KGKKKRGSSLGGTGAAEGPACGFMVVAGGSGSGNCGEVASG [G332C G332C] | -2.2
QYTHTGLLPQTMLITDTTNLTALASLTPTKQVFTSDTEASS [S531T S531T] | 3
KKTSPAREVSSESGTSGQFTTPSSTSVPTIASSSAPVSIWS [P133T P133T] | 1.5
QLGSKSTSHSGQDTEEAGSSVSTLERSLAARRAPRAKLMIP [M1217V M1217V] | -3.9
NQQGAHSALSSASTSSHNLQCIFNIGSRGPLPLSSQHRGDA [S85C S85C] | 0
YEKKIFEYETQRRRLSPPSSFAASSYSFSDLNSTRGDADMY [S54F S54F] | -2.3
PSDPTDRAEVEKDSGHGSTSMDSEGFSIPDTGSHCSSEYAA [V501M V501M] | 3
KPPCFRESASPSPEPWTPGHRACSTSSAAIMATATSRNCDK [G313R G313R] | -1.2
PAFSEDSESHGSSSASSPLSVEGRPSPLEAPNERQRELAVK [A1434V A1434V] | 4
KVKKGGGGAGTATESAPGPSVQSVAPIPQPPAESESGSESE [G22V G22V] | 3.4
HMKVHESSSQGSQPSPAASSRYESSTPPTIVSPSTDNPTTS [G400R G400R] | 1
SSSDSGIATGSHSSYSSSLSFYAGSSLDVWRATDELGSLLS [S354F S354F] | -2.2
PAKQEPKPFDRLQQLLPASQFTQLPCSSSPQETTQSRPMPP [S1431F S1431F] | -2
PAKQEPKPFDRLQQLLPASQYTQLPCSSSPQETTQSRPMPP [S1431Y S1431Y] | -2
SISVISSSSYSYHHPSSAGVNLGASAVAGSSGSTQSGQTKT [D482N D482N] | -0.54
PKPIMDRWENQGSPQTSLSATAIPQNLPFPPALHRSSFPDS [P711T P711T] | -1
NRPFPGNMSSMTPSSPGMSQEGGPGMGPPMPTVNRKAQEAA [Q913E Q913E] | 1.9
WEGRYGVQEQVTISGAAGAASSVSASASYAAEAVATGAKEV [A396S A396S] | 4
TVEPLKTLLAEPEGNYPQSSTEPPMHSYLTSVAEEVLSPKE [I3901T I3901T] | 1.5
SSQIKKTTDLTTERLVHVDKCPRTASPHFTVSKISVPKTEH [R808C R808C] | -1
PQQYGIQYSASYSQQTGPQQLQQFQGYGQQPTSQAPAPAFS [P285L P285L] | 3.1
SDDCSKNTSPTTQPTASGAGGPVMTGAGESTNPENSELKYS [A543G A543G] | 1
HNMPKEEEEEEKEGRHLDMVKCVLPSSSHAACSHGLVNSHL [Q705K Q705K] | 0.045
GALLPREQFAAPLGRPVGTSFSATYPAYVSPDVAQSWTAGP [Y138F Y138F] | -3
APMPGDCPAAGTYSYAQVSDNAGPPEPPAGPMHPRLGPEPA [Y259N Y259N] | 0
GASKALNVTVDVQSPACTSYHMTPQGHRAPPKINPDNYGMD [Q805H Q805H] | -2.7
SPVHMMGTGIGRIEASPQRSHSSSTSSDHGNFMMPPVGPQA [R461H R461H] | 4

Same assay, conditions: number of wild-type / mutant comparisons summed (bounds the score): 15; paper call: diminished; wild-type window: …

Binder | mutation enrichment score
SSSQSQGISSSSTSTMPNSSKSSHSSSGTLSSLETVSTQEL [Q51K Q51K] | -6

Same assay, conditions: number of wild-type / mutant comparisons summed (bounds the score): 15; paper call: enhanced; wild-type window: …

Binder | mutation enrichment score
PTDRAEVEKDSGHGSTSVDSQGFSIPDTGSHCSSEYAASSP [E504Q E504Q] | 5
CCCACHSKDFTNNDMNQGTSCHFNYPSTPPSERNGTSSTCQ [R106C R106C] | 5
PAGSVSSTPLSTPCSSVPSSSSFSPTEQKTHLEDLYWMASN [P71S P71S] | 7

Same assay, conditions: number of wild-type / mutant comparisons summed (bounds the score): 15; paper call: no_effect; wild-type window: …

Binder | mutation enrichment score
CGTCGQPADKASASGSGAQVCGPISSGSSASSVTVTRSYRS [G608C G608C] | 2
NCSPNRQKPVVDHSVRINSVRSTASSSQPLLVHDDV [G961R G961R] | -5.6
NCSPNRQKPVVDHSVRINSVSSTASSSQPLLVHDDV [G961S G961S] | -3.8
KTSPAREVSSESGTSGQFTPASSTSVPTIASSSAPVSIWSP [P134A P134A] | 3.6
EPDRKAAVSHWQQQSYLDSGSHSGATTTAPSLSGKGNPEEE [I35S I35S] | 4
ESQQESTLWEMQSDSVSSSFKPTMSATTTVVGEQISKVIIT [E3016K E3016K] | -4.7
PQSPAGYMPYSHPSSYTTHPEMQQASVSSPIVAGGLRNIHD [Q200E Q200E] | 1.9
SGSHLSNSFAEPSRSNGSMVLHSSSPYVVYPSDKPFLNSDL [R30L R30L] | -4
SGSHLSNSFAEPSRSNGSMVPHSSSPYVVYPSDKPFLNSDL [R30P R30P] | -3
SNLVSPTNLSQFNLPGPSMMHSNSIPAQDSSFDLYDDSQLC [R1498H R1498H] | 1
LGSDFSLVMESSPGATGSFTCEAVELVPAGAPTQAAWRKSH [Y462C Y462C] | -1.9
SAMGKSPLSQGDSSAPSLPKEAASTSGPTPAASQALNPQAQ [Q136E Q136E] | 1.8
PPLGISLPQVELTGFGEAGTSGQQAQSTVPSAEGTAGYRVQ [P1166S P1166S] | 4
